Reference: US20190367516A1 (Bayer Pharma Aktiengesellschaft, priority 2015, published 2019)

Biological target: T1, human M2 receptor (Homo sapiens, UniProt P08172)
T1 sequence (P08172 1-466): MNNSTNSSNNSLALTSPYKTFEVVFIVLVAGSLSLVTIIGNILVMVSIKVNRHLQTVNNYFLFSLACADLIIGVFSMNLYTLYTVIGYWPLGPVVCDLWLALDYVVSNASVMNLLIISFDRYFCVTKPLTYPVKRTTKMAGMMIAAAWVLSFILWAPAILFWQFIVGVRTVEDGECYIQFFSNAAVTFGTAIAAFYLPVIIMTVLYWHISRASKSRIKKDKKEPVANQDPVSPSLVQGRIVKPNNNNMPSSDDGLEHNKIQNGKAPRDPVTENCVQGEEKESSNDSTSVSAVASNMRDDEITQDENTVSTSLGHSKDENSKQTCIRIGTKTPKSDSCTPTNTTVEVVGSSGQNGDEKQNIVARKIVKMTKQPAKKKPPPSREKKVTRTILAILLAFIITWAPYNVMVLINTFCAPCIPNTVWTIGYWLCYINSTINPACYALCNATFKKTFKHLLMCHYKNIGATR
Settings: read-out: Efficiency, M2-GIRK1/4 activation test; boosting of the acetylcholine effect at an EC20 acetylcholine concentration

| Emax [%] | SMILES |
| --- | --- |
| 95 | CCC(NC(=O)c1cn(-c2ccc(F)cc2F)c2nc(N3CC[C@H](F)C3)ccc2c1=O)C(F)(F)F (stereo partly drawn) [Example 71, 1-(2,4-Difluorophenyl)-7-[(3S)-3-fluoropyrrolidin-1-yl]-4-oxo-N-[1,1,1-trifluorobutan-2-yl]-1,4-dihydro-1,8-naphthyridine-3-carboxamide] |
| 94 | O=C(NC12CC3CC(CC(C3)C1)C2)c1cn(-c2ccc(F)cc2F)c2nc(N3CCNC3=O)ccc2c1=O [Example 186, 1-(2,4-Difluorophenyl)-4-oxo-7-(2-oxoimidazolidin-1-yl)-N-(tricyclo[3.3.1.1^3,7]dec-1-yl)-1,4-dihydro-1,8-naphthyridine-3-carboxamide] |
| 88 | CN(CCO)c1ccc2c(=O)c(C(=O)N[C@@H](C3CC3)C(F)(F)F)cn(-c3c(F)cc(F)cc3F)c2n1 [Example 384, N-[(1S)-1-Cyclopropyl-2,2,2-trifluoroethyl]-7-[(2-hydroxyethyl)(methyl)amino]-4-oxo-1-(2,4,6-trifluorophenyl)-1,4-dihydro-1,8-naphthyridine-3-carboxamide] |
| 100 | CN(C)c1ccc2c(=O)c(C(=O)NC34CCC(F)(CC3)CC4)cn(-c3ccc(F)cc3F)c2n1 [Example 47, 1-(2,4-Difluorophenyl)-7-(dimethylamino)-N-(4-fluorobicyclo[2.2.2]oct-1-yl)-4-oxo-1,4-dihydro-1,8-naphthyridine-3-carboxamide] |
| 100 | CC[C@@H](NC(=O)c1cn(-c2ccc(F)cc2F)c2nc(N3CC4CNC(=O)C4C3)ccc2c1=O)C(F)(F)F (single isomer, unassigned) [Example 222] |
| 100 | CN(C)c1ccc2c(=O)c(C(=O)NC(c3c(Cl)cccc3Cl)C(F)(F)F)cn(-c3ccc(F)cc3F)c2n1 (racemic) [Example 56, rac-N-[1-(2,6-Dichlorophenyl)-2,2,2-trifluoroethyl]-1-(2,4-difluorophenyl)-7-(dimethylamino)-4-oxo-1,4-dihydro-1,8-naphthyridine-3-carboxamide] |
| 93.7 | O=C(NC12CC3CC(CC(C3)C1)C2)c1cn(-c2ccc(F)cc2F)c2nc(N3CCC(O)(CO)CC3)ccc2c1=O [Example 116, 1-(2,4-Difluorophenyl)-7-[4-hydroxy-4-(hydroxymethyl)piperidin-1-yl]-4-oxo-N-(tricyclo[3.3.1.1^3,7]dec-1-yl)-1,4-dihydro-1,8-naphthyridine-3-carboxamide] |
| 96.6 | O=C(NC(C(F)(F)F)C(F)(F)F)c1cn(-c2ccc(F)cc2F)c2nc(NCCF)ccc2c1=O [Example 89, 1-(2,4-Difluorophenyl)-7-[(2-fluoroethyl)amino]-N-(1,1,1,3,3,3-hexafluoropropan-2-yl)-4-oxo-1,4-dihydro-1,8-naphthyridine-3-carboxamide] |
| 96.3 | CN(C)c1ccc2c(=O)c(C(=O)NC34CC5CC(CC(F)(C5)C3)C4)cn(-c3ccc(F)cc3F)c2n1 [Example 37, 1-(2,4-Difluorophenyl)-7-(dimethylamino)-N-(3-fluorotricyclo[3.3.1.1^3,7]dec-1-yl)-4-oxo-1,4-dihydro-1,8-naphthyridine-3-carboxamide] |
| 96 | CCCC(NC(=O)c1cn(-c2ccc(F)cc2F)c2nc(N3CCC(F)(F)C3)ccc2c1=O)C(F)(F)F (racemic) [Example 76, rac-1-(2,4-Difluorophenyl)-7-(3,3-difluoropyrrolidin-1-yl)-4-oxo-N-[1,1,1-trifluoropentan-2-yl]-1,4-dihydro-1,8-naphthyridine-3-carboxamide] |
| 98.4 | CC12CCC(NC(=O)c3cn(-c4ccc(F)cc4F)c4nc(N5CC[C@@H](O)C5)ccc4c3=O)(CC1)CC2 [Example 20, 1-(2,4-Difluorophenyl)-7-[(3R)-3-hydroxypyrrolidin-1-yl]-N-(4-methylbicyclo[2.2.2]oct-1-yl)-4-oxo-1,4-dihydro-1,8-naphthyridine-3-carboxamide] |
| 100 | CC[C@@H](NC(=O)c1cn(-c2ccc(F)cc2F)c2nc(N3CC4CC4(O)C3)ccc2c1=O)C(F)(F)F (mixture of isomers) [Example 267, 1-(2,4-Difluorophenyl)-7-[1-hydroxy-3-azabicyclo[3.1.0]hex-3-yl]-4-oxo-N-[(2R)-1,1,1-trifluorobutan-2-yl]-1,4-dihydro-1,8-naphthyridine-3-carboxamide] |
| 85.5 | CC(C)(CC(F)(F)F)NC(=O)c1cn(-c2c(F)cc(F)cc2F)c2nc(N3CCCN(CCO)C3=O)ccc2c1=O [Example 383, 7-[3-(2-Hydroxyethyl)-2-oxotetrahydropyrimidin-1(2H)-yl]-4-oxo-N-(4,4,4-trifluoro-2-methylbutan-2-yl)-1-(2,4,6-trifluorophenyl)-1,4-dihydro-1,8-naphthyridine-3-carboxamide] |
| 94.8 | O=C(NC(c1ccccc1Cl)C(F)(F)F)c1cn(-c2ccc(F)cc2F)c2nc(N3C[C@@H](O)CC3=O)ccc2c1=O (mixture of isomers) [Example 211, N-[1-(2-Chlorophenyl)-2,2,2-trifluoroethyl]-1-(2,4-difluorophenyl)-7-[(4S)-4-hydroxy-2-oxopyrrolidin-1-yl]-4-oxo-1,4-dihydro-1,8-naphthyridine-3-carboxamide] |
| 96.5 | CC1(F)CCN(c2ccc3c(=O)c(C(=O)NC45CC6CC(CC(C6)C4)C5)cn(-c4ccc(F)cc4F)c3n2)C1 (racemic) [Example 9, rac-1-(2,4-Difluorophenyl)-7-(3-fluoro-3-methylpyrrolidin-1-yl)-4-oxo-N-(tricyclo[3.3.1.1^3,7]dec-1-yl)-1,4-dihydro-1,8-naphthyridine-3-carboxamide] |
| 93 | CC(C)(CC(F)(F)F)NC(=O)c1cn(-c2c(F)cc(F)cc2F)c2nc(N3CCNC3=O)ccc2c1=O [Example 376, 4-Oxo-7-(2-oxoimidazolidin-11-yl)-N-(4,4,4-trifluoro-2-methylbutan-2-yl)-1-(2,4,6-trifluorophenyl)-1,4-dihydro-1,8-naphthyridine-3-carboxamide] |
| 98.2 | O=C(NC12CC3CC(CC(C3)C1)C2)c1cn(-c2ccc(F)cc2F)c2nc(N3CC[C@H](F)C3)ccc2c1=O [Example 61, 1-(2,4-Difluorophenyl)-7-[(3S)-3-fluoropyrrolidin-1-yl]-4-oxo-N-(tricyclo[3.3.1.1^3,7]dec-1-yl)-1,4-dihydro-1,8-naphthyridine-3-carboxamide] |
| 100 | CN(C)c1ccc2c(=O)c(C(=O)NC34CC5CC(C3)CC(C(F)(F)F)(C5)C4)cn(-c3ccc(F)cc3Cl)c2n1 [Example 153, 1-(2-Chloro-4-fluorophenyl)-7-(dimethylamino)-4-oxo-N-[3-(trifluoromethyl)tricyclo[3.3.1.1^3,7]dec-1-yl]-1,4-dihydro-1,8-naphthyridine-3-carboxamide] |
| 93.2 | CNc1ccc2c(=O)c(C(=O)NC34CCC(CC3)CC4)cn(-c3ccc(F)cc3F)c2n1 [Example 162] |

| SMILES | Emax [%] |
| --- | --- |
| O=C(NC12CC3CC(CC(C3)C1)C2)c1cn(-c2ccc(F)cc2F)c2nc(NCC(F)(F)F)ccc2c1=O [Example 90, 1-(2,4-Difluorophenyl)-4-oxo-N-(tricyclo[3.3.1.1^3,7]dec-1-yl)-7-[(2,2,2-trifluoroethyl)amino]-1,4-dihydro-1,8-naphthyridine-3-carboxamide] | 94.7 |
| CN(CCO)c1ccc2c(=O)c(C(=O)NC34CC5CC(CC(C5)C3)C4)cn(-c3ccc(F)cc3F)c2n1 [Example 82, 1-(2,4-Difluorophenyl)-7-[(2-hydroxyethyl)(methyl)amino]-4-oxo-N-(tricyclo[3.3.1.1^3,7]dec-1-yl)-1,4-dihydro-1,8-naphthyridine-3-carboxamide] | 100 |
